Results: PubChem BioAssay AID463173 (ICCB-Longwood Screening Facility, Harvard Medical School, 2010)
The campaign covered roughly 52,000 compounds. About 1,700 (3.3%) were called active. No stated cut-off is given here; in the data, active means survival mostly below about 52% (no sharp cut-off); inactive means mostly above about 56%. The list shows a part of the results.

tested on: Wild type; test: S. aureus survival, RN4220 and DeltatarO strains – OD600, teichoic acid synthesis inhibitors, primary screen (AID 463173); conditions: S. aureus RN4220 wild type/DeltatarO growth, OD600, 18 h, active compounds read low, screened at 18.75 µg/mL (by protocol)

Structure (SMILES) | survival
O=C(NC(=S)NC1CC1)c1cccnc1 | inactive: 100%
COc1ccc(NC(=O)CSc2cn(CC(=O)N3CCOCC3)c3ccccc23)cc1OC | inactive: 96%
Cc1c(CC(=O)NCCc2ccccc2F)c(=O)oc2c(C)c3occ(C(C)(C)C)c3cc12 | inactive: 73%
CC(C)COC(=O)/C(C#N)=C\c1ccc(-c2ccccc2Cl)o1 | inactive: 60%
COc1ccccc1CNS(=O)(=O)c1cc(C(=O)Nc2cccc(C(F)(F)F)c2)ccc1F | inactive: 85%
COC(=O)Cn1c(O)c(N=NC(=O)c2ccc3c(c2)OCO3)c2ccccc21 | inactive: 111%
Cc1ccc(Cl)c2c1N[C@@H](c1ccc(C(=O)O)cc1)[C@H]1CC=C[C@@H]21 | active: 10%
Cc1cccc(OCC(=O)Nc2c(C)ccc3nsnc23)c1C | inactive: 87%
CCc1ccc(S(=O)(=O)c2nnn3c2nc(N2CCC(C)CC2)c2cc(Cl)ccc23)cc1 | inactive: 128%
COc1ccc(-c2cc(C(=O)NCc3cc(OC)c(OC)c(OC)c3)[nH]n2)cc1 | inactive: 64%
O=C(Cn1nc(-c2ccc3c(c2)OCCO3)ccc1=O)Nc1ccc(N2CCOCC2)cc1 | inactive: 102%
O=C(Nc1ccccc1)C(Cc1ccccc1)N1Cc2ccccc2C1=O (configuration not stated) | inactive: 90%
O=C(CSc1ncc(S(=O)(=O)c2ccc(Br)cc2)c(=O)[nH]1)NCc1ccc(Cl)cc1 | inactive: 86%
Cc1ccc(C)c(NC(=O)CCN2C(=O)c3ccccc3Sc3ncccc32)c1 | inactive: 90%
COc1ccc(C2=NS(=O)(=O)N(C)C(C(=O)Nc3cc(C)ccc3O)=C2)cc1OC | inactive: 69%
O=C1CS/C(=N\N2CCOCC2)N1Cc1ccccc1 | inactive: 120%
COc1cccc(N2CCN(S(=O)(=O)c3cc(Br)cc4c3N(C(=O)C3CC3)CC4)CC2)c1 | inactive: 80%
Cc1nc(N2C(=O)c3oc4ccccc4c(=O)c3C2c2ccccc2F)sc1C (configuration not stated) | inactive: 73%
CN1CCN(C(CNC(=O)C(=O)Nc2ccccc2)c2ccc3c(c2)OCO3)CC1 (configuration not stated) | inactive: 60%
Cc1cccc(N2C(=O)CSC23C(=O)N(Cc2cccc(F)c2)c2ccccc23)c1 (configuration not stated) | inactive: 80%
Cc1cccc(-c2noc(CN(C(=O)COc3ccc(C(C)C)cc3)C(C)C)n2)c1 | active: 3%
CCOC(=O)c1c(C)n(-c2ccccc2)c2ccc(OC(=O)c3ccccc3)cc12 | active: 0%
CCNc1nc(NC(C)CC)nc(ON=C(C)C)n1 (configuration not stated) | inactive: 120%

Structure (SMILES) | survival
Cc1ccc(C)c(CSc2nc3ncccc3[nH]2)c1 | inactive: 75%
O=C(O)CSCCn1cccn1 | inactive: 104%
Oc1c(C(c2ccc(Cl)cc2Cl)N2CCOCC2)sc2nc(-c3ccco3)nn12 (configuration not stated) | inactive: 77%
CCc1ccc(NC(=O)Cn2c(=O)c(-c3ccccc3NC(C)=O)nc3ccccc32)cc1 | inactive: 85%
COc1cccc(CNC(=O)CSc2nc(=O)[nH]c3c2CCCC3)c1 | inactive: 77%
CCn1ccc2cc(S(=O)(=O)N3CCCN(C(=O)Nc4ccccc4C(F)(F)F)CC3)ccc21 | inactive: 131%
CCOC(=O)c1cc2c(ccn2-c2ccc(F)cc2)n1CC(=O)c1ccc2c(c1)OCCO2 | inactive: 87%
CCOc1ccc(S(=O)(=O)N(CC(=O)NCCSCc2ccc(C)cc2)c2ccccc2)cc1 | inactive: 91%
Cc1ccc2c(=O)cc(C(=O)Nc3nnc(CC(C)C)s3)oc2c1C | inactive: 90%
CC1CCN(S(=O)(=O)c2ccc(N3CCCCS3(=O)=O)cc2)CC1 | inactive: 70%
COc1ccc(CCNC(=O)Cn2cc(S(=O)(=O)Cc3ccccc3F)c3ccccc32)cc1OC | inactive: 77%
Cc1cccc(Cn2c(=O)n(CCC(=O)NCc3ccc4c(c3)OCO4)c(=O)c3sccc32)c1 | inactive: 93%
O=C(CC1N=C2c3ccccc3N=C(SCC(=O)Nc3cccc(Cl)c3)N2C1=O)NCc1cccs1 (configuration not stated) | inactive: 82%
Cc1ccc(C)n1-c1nnc(N2CCC(C(=O)Nc3ccccc3Br)CC2)s1 | inactive: 88%
Cc1ccsc1CNCCCO | inactive: 107%
CCn1c(SCC(=O)Nc2ccc(C)cc2Br)nnc1-c1nonc1NC(C)=O | inactive: 86%
CCc1ccc(NC(=O)c2ccc3c(c2)N(Cc2ccc(C)cc2)CCS3)cc1 | inactive: 99%
COc1ccc2c(c1)Cc1sc(NC(=O)c3ccccc3Br)nc1-2 | inactive: 83%
CCc1ccccc1N(C)C(=O)C1CCCN(c2ncnc3onc(-c4ccc(F)cc4)c23)C1 (configuration not stated) | inactive: 74%
Cc1ccc(OCCn2c(CNc3cccc(C)c3)nc3ccccc32)cc1 | active: -21%
CCCN1CCc2nc(N3CCN(CC)CC3)ncc2C1 | inactive: 71%
CCOc1cccc(C(=O)Nc2c(C(=O)c3ccc(OC)cc3)oc3ccccc23)c1 | inactive: 38%
NC(=O)c1ccc(NC(=O)c2cc3ccccc3oc2=O)cc1 | inactive: 100%

Structure (SMILES) | survival
COc1ccccc1CNc1cc(-c2ccccc2)nc2nncn12 | inactive: 78%
CS(=O)(=O)NCC(c1ccco1)N1CCN(c2ccccc2)CC1 (configuration not stated) | inactive: 83%
COc1ccc(N2Cc3cccc(C(=O)Nc4ccc(C(C)C)cc4)c3C2=O)cc1 | inactive: 82%
CCCCOC(=O)c1ccc(NC(=O)c2cc(-c3ccccc3)on2)cc1 | inactive: 92%
CC(=O)c1ccc(C(=O)N(CCCN(C)C)c2nc3c(C)c(C)ccc3s2)cc1 | inactive: 120%
CCCNc1nc2ccccc2s1 | inactive: 116%
O=C(CN(c1ccc(Cl)c(C(F)(F)F)c1)S(=O)(=O)c1ccccc1)N1CCc2ccccc2C1 | inactive: 74%
O=C(c1ccc(Cl)cc1)N1CCC(c2nc(-c3ccc(F)cc3)no2)CC1 | inactive: 117%
CC1(C)Cc2c(sc3ncn4nc(CSc5nc6ccccc6o5)nc4c23)C(C)(C)N1 | inactive: 112%
Cc1ccc(NC(=O)c2sc(-n3nc(C)c(CCC(C)C)c3C)nc2C)cc1C | inactive: 95%
Cc1nc2ccn(Cc3cccs3)c(=O)c2cc1C(=O)N1CCN(c2ccc(F)cc2)CC1 | inactive: 129%
C=Cn1c(C(=O)O)cc(CC)c1-c1ccccc1 | inactive: 104%
CCN(C(=O)c1cc2c(Cl)nc3ccccc3c2s1)c1cccc(Cl)c1 | inactive: 76%
CCOC(=O)c1cnc2c(C)c(Cl)ccc2c1Nc1ccc(C)cc1C | inactive: 140%
C=Cn1cc[n+](CC(=O)c2ccc(Cl)cc2)c1 | inactive: 108%
CC1=C(C(=O)Nc2cccnc2)C(c2ccc(F)cc2)n2nc(SCc3ccccc3F)nc2N1 (configuration not stated) | inactive: 71%
CN1c2cc(Cl)ccc2-c2nc(SCC(=O)Nc3ccc(F)cc3F)ncc2S1(=O)=O | inactive: 73%
COC(=O)c1ccc(S(=O)(=O)N2CCC(c3nc4ccccc4s3)CC2)cc1 | inactive: 108%
O=C(Nc1ccccc1)Oc1ccc2sc(=O)oc2c1 | inactive: 91%
c1ccc(OCCSc2nc3ccccc3o2)cc1 | inactive: 116%
COc1cc(NC(=O)CN(C)S(=O)(=O)c2ccc3[nH]c4c(c3c2)CCCC4)cc(OC)c1OC | inactive: 72%
COc1ccc(OC2CCN(S(=O)(=O)c3ccc(OC)cc3)CC2)cc1 | inactive: 125%
CC1(c2ccccc2)OC(=O)C(C#N)C12CCCCC2 (configuration not stated) | inactive: 122%

Structure (SMILES) | survival
O=C1C2=C(Nc3[nH]c(=O)[nH]c(=O)c3C2c2cccs2)c2ccccc21 (configuration not stated) | inactive: 124%
O=C(NC1CCCC1)c1ccc(CSc2nc3ccncc3n2Cc2ccccc2F)cc1 | inactive: 84%
CCOC(=O)N1CCc2c(sc(NCc3ccc(OCC)cc3)c2C(=O)Nc2ccc(OC)cc2OC)C1 | inactive: 84%
CN(C)C(=O)/C=C/c1ccc2c(c1)OCO2 | inactive: 113%
Cc1cc(NC(=O)CSc2nc3c([nH]c4ccccc43)c(=O)n2-c2cccc(Cl)c2)no1 | inactive: 89%
Clc1ccc(-c2noc3ncnc(NCCCN4CCN(c5ccccc5)CC4)c23)cc1 | inactive: 72%
C=C(C)CSc1nc(C)cc(C)c1C#N | inactive: 108%
CCOC(=O)C1CCCN(C(=O)C2CCN(c3nnc(C)c4c(C)n(-c5ccccc5)nc34)CC2)C1 (configuration not stated) | inactive: 152%
CC1=NN(c2ccccc2)C(c2ccccc2)C1 (configuration not stated) | inactive: 98%
COc1ccccc1C(=O)NCc1ccc2c(c1)CCN2C(=O)c1ccncc1 | inactive: 72%
Cn1c(C=Nc2ccc(Cl)cc2)nc2ccccc21 | inactive: 111%
CCOc1ccccc1NC(=O)C(Cc1ccccc1)NS(=O)(=O)c1ccc(Br)s1 (configuration not stated) | inactive: 137%
Cc1ccc(C)c(N(CC(=O)Nc2ccccc2)S(C)(=O)=O)c1 | inactive: 99%
Cc1ccc(C)c(N2CCN(C(=O)C3CCN(S(=O)(=O)c4cn(C)cn4)CC3)CC2)c1 | inactive: 75%
CC(=O)Nc1ccccc1C(=O)NCc1ccco1 | inactive: 106%
COc1ccc(CNS(=O)(=O)c2cc(C(=O)Nc3cc(Cl)cc(Cl)c3)ccc2F)cc1 | inactive: 88%
CCc1ccc(CNC(=O)C(CC)n2ccc3cc(S(=O)(=O)N4CCCCC4)ccc32)cc1 (configuration not stated) | inactive: 81%
CCOC(=O)C1C(=O)C(C(=O)OCC)C(c2cccnc2)NC1c1cccnc1 (configuration not stated) | inactive: 110%
COc1ccccc1C(=O)NCc1ccc2c(c1)CCN2C(=O)c1cccc(C)c1 | inactive: 98%
COc1ccc(N2CCN(C(=O)C3CCN(S(=O)(=O)c4cnc[nH]4)CC3)CC2)cc1 | inactive: 121%
CCCc1nc2ccccc2n1CC(O)COc1ccccc1 (configuration not stated) | inactive: 103%
CCOC(=O)Cn1c(=O)oc2cc(S(=O)(=O)Nc3cc(OC)cc(OC)c3)ccc21 | inactive: 73%
CCc1ccc2[nH]c(=O)c(CN(CCN(C)C)C(=O)Nc3ccccc3Cl)cc2c1 | inactive: 115%
